Test results from the supplement of paper PMC6089552.
The whole screen tested about 3,200 compounds, of which about 300 (9.4%) showed activity. The entries are a selection whose mix differs from that of the whole data set.

Tested on: A673/TR/shEF
Assay: cell viability (LOESS-normalised, relative to median of negative controls) (log2 ratio); higher = more viable cells (less compound effect), active = hit call of the paper (over 3 MAD below the median)
Conditions: treatment time: 72 h
In short: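 A673/TR/shEF Ewing sarcoma cells were plated at 1,500 per well in 384-well plates and cultured with or without doxycycline, added 24 h before compounds, to induce EWS-FLI1 shRNA knockdown. Library compounds at two or more concentrations, alongside DMSO controls, were applied for three days. Cell viability was measured by CellTiter-Glo luminescence on an Envision reader. Readings were LOESS-corrected per plate, divided by the median of negative controls and log2-transformed, and hits were wells lying at least three median absolute deviations from the median of all screened wells.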

[1] = 0.025 µM, library screen: screen1, EWS-FLI1 expression: high (no doxycycline)
[2] = 0.025 µM, library screen: screen1, EWS-FLI1 expression: low (doxycycline-induced shRNA knockdown)
[3] = 0.25 µM, library screen: screen1, EWS-FLI1 expression: high (no doxycycline)
[4] = 0.25 µM, library screen: screen1, EWS-FLI1 expression: low (doxycycline-induced shRNA knockdown)
[5] = 2.5 µM, library screen: screen1, EWS-FLI1 expression: high (no doxycycline)
[6] = 2.5 µM, library screen: screen1, EWS-FLI1 expression: low (doxycycline-induced shRNA knockdown)
[7] = 25 µM, library screen: screen1, EWS-FLI1 expression: high (no doxycycline)
[8] = 25 µM, library screen: screen1, EWS-FLI1 expression: low (doxycycline-induced shRNA knockdown)
[9] = 0.25 µM, library screen: screen2, EWS-FLI1 expression: high (no doxycycline)
[10] = 0.25 µM, library screen: screen2, EWS-FLI1 expression: low (doxycycline-induced shRNA knockdown)
[11] = 2.5 µM, library screen: screen2, EWS-FLI1 expression: high (no doxycycline)
[12] = 2.5 µM, library screen: screen2, EWS-FLI1 expression: low (doxycycline-induced shRNA knockdown)
[13] = 0.103 µM, library screen: screen3, EWS-FLI1 expression: high (no doxycycline)
[14] = 0.103 µM, library screen: screen3, EWS-FLI1 expression: low (doxycycline-induced shRNA knockdown)
[15] = 0.308 µM, library screen: screen3, EWS-FLI1 expression: high (no doxycycline)
[16] = 0.308 µM, library screen: screen3, EWS-FLI1 expression: low (doxycycline-induced shRNA knockdown)
[17] = 0.926 µM, library screen: screen3, EWS-FLI1 expression: high (no doxycycline)
[18] = 0.926 µM, library screen: screen3, EWS-FLI1 expression: low (doxycycline-induced shRNA knockdown)
[19] = 2.8 µM, library screen: screen3, EWS-FLI1 expression: high (no doxycycline)
[20] = 2.8 µM, library screen: screen3, EWS-FLI1 expression: low (doxycycline-induced shRNA knockdown)
[21] = 8.3 µM, library screen: screen3, EWS-FLI1 expression: high (no doxycycline)
[22] = 8.3 µM, library screen: screen3, EWS-FLI1 expression: low (doxycycline-induced shRNA knockdown)
[23] = 25 µM, library screen: screen3, EWS-FLI1 expression: high (no doxycycline)
[24] = 25 µM, library screen: screen3, EWS-FLI1 expression: low (doxycycline-induced shRNA knockdown)

Measured: cell viability (log2)

CN[C@@H]1C[C@H]2O[C@@](C)([C@@H]1OC)n1c3ccccc3c3c4c(c5c6ccccc6n2c5c31)C(=O)NC4
active: [1] -2.08 | [2] -1.86 | [3] -3.68 | [4] -3.78 | [5] -4.25 | [6] -4.31 | [7] -4.11 | [8] -4.31

CCN1C[C@]2(COC)[C@H](O)C[C@H](OC)[C@]34C1[C@H]([C@H](OC)[C@H]23)[C@]1(OC(C)=O)[C@H]2[C@@H](OC(=O)c3ccccc3)[C@](O)(C[C@H]24)[C@@H](OC)[C@@H]1O
inactive: [3] 0.162 | [4] 0.0997 | [5] 0.181 | [6] 0.202

Clc1ccc(C(OCCN2CCCCC2)c2ccccc2)cc1 (stereo not given)
inactive: [3] 0.0706 | [4] -0.00561 | [5] 0.0775 | [6] 0.0945

Cc1c(N)nc([C@H](CC(N)=O)NC[C@H](N)C(N)=O)nc1C(=O)N[C@H](C(=O)N[C@H](C)[C@@H](O)[C@H](C)C(=O)N[C@H](C(=O)NCCc1nc(-c2nc(C(=O)NCCC[S+](C)C)cs2)cs1)[C@@H](C)O)[C@@H](OC1OC(CO)C(O)C(O)C1OC1OC(CO)C(O)C(OC(N)=O)C1O)c1cnc[nH]1 (stereo not given in full)
inactive: [3] 0.091 | [4] 0.105 | [5] 0.125 | [6] 0.052

O=C(O)C1C2CCC(O2)C1C(=O)O (stereo not given)
inactive: [1] 0.136 | [2] 0.0328 | [3] 0.0769 | [4] 0.0235 | [9] 0.267 | [10] 0.0812 | [11] 0.105 | [12] -0.0306
active: [5] -0.431 | [6] -2.19 | [7] -0.369 | [8] -2.13

CN(C)C(=O)Oc1ccc[n+](C)c1
inactive: [13] 0.101 | [14] 0.057 | [3] 0.121 | [4] 0.143 | [9] 0.231 | [10] 0.0517 | [15] 0.0662 | [16] 0.104 | [17] 0.0748 | [18] 0.0993 | [5] 0.0955 | [6] 0.131 | [11] 0.306 | [12] 0.0307 | [19] -0.0235 | [20] 0.0464 | [21] -0.0229 | [22] 0.133 | [23] 0.000715 | [24] 0.0844

CCC1(O)CC(OC2CC(N(C)C)C(O)C(C)O2)c2c(cc3c(c2O)C(=O)c2c(O)cccc2C3=O)C1C(=O)OC (stereo not given)
inactive: 0.025 µM, library screen: screen2, EWS-FLI1 expression: high (no doxycycline) -0.0129 | 0.025 µM, library screen: screen2, EWS-FLI1 expression: low (doxycycline-induced shRNA knockdown) 0.0193 | [9] 0.135 | [10] -0.0369
active: [11] -0.409 | [12] -0.0756 | 25 µM, library screen: screen2, EWS-FLI1 expression: high (no doxycycline) -4.23 | 25 µM, library screen: screen2, EWS-FLI1 expression: low (doxycycline-induced shRNA knockdown) -3.71

C#CCN(C)[C@H](C)Cc1ccccc1
inactive: [13] 0.0599 | [14] 0.0326 | [15] -0.0258 | [16] 0.00835 | [17] 0.029 | [18] 0.0504 | [19] -0.0101 | [20] -0.00191 | [21] 0.0521 | [22] 0.0473 | [23] -0.00353 | [24] 0.0686

CN1C2CC3CC1[C@H](O)C2O3 (stereo not given in full)
inactive: [3] 0.0139 | [4] -0.0209 | [5] 0.0278 | [6] 0.0758

CC(N)c1cccc(Cl)c1Cl (stereo not given)
inactive: [9] 0.233 | [10] 0.103 | [11] 0.144 | [12] 0.0732

CCc1c(C(=O)OC)ncc2[nH]c3cc(OC)c(OC)cc3c12
inactive: [9] 0.212 | [10] 0.033 | [11] 0.14 | [12] 0.0303

CC(=O)NCCc1c[nH]c2ccccc12
inactive: [9] 0.149 | [10] 0.143 | [11] 0.0895 | [12] 0.082

Nc1ccc(CCN2CCN(c3cccc(C(F)(F)F)c3)CC2)cc1
inactive: [9] 0.0196 | [10] 0.0537 | [11] 0.131 | [12] 0.044

COc1cccc2c1cc([N+](=O)[O-])c1c(C(=O)O)cc3c(c12)OCO3
active: [5] -0.209
inactive: [3] 0.0105 | [4] 0.00257 | [6] -0.0027

COc1ccc2c3c1O[C@H]1[C@@H](O)CCC4[C@@H](C2)N(C)CC[C@@]341 (stereo not given in full)
inactive: [3] 0.0725 | [4] 0.0483 | [5] 0.0123 | [6] 0.128

CC(=O)Nc1cc([As](=O)(O)O)ccc1O
inactive: [3] 0.0629 | [4] 0.0714 | [5] 0.14 | [6] 0.0911

C/C=C(\C)C(=O)O[C@H]1C[C@@H](OC(C)=O)[C@@]2(C(=O)OC)CO[C@H]3[C@@H](O)[C@@](C)([C@]45O[C@@]4(C)[C@H]4C[C@@H]5O[C@@H]5OC=C[C@@]54O)[C@H]4[C@]1(CO[C@]4(O)C(=O)OC)[C@@H]32
inactive: [3] 0.103 | [4] 0.0233 | [5] 0.139 | [6] -0.02

Cc1cc2c(C(C)C)c(O)c(O)c(C=O)c2c(O)c1-c1c(C)cc2c(C(C)C)c(O)c(O)c(C=O)c2c1O
inactive: [3] 0.077 | [4] 0.0973 | [5] 0.153 | [6] 0.186

CCCN1CC[C@@H]2c3cc(O)ccc3CC[C@@H]21
inactive: [9] 0.0449 | [10] -0.0153 | [11] 0.0773 | [12] 0.0525

O=c1[nH]c2ccccc2n1C1CCN(CCCC(c2ccc(F)cc2)c2ccc(F)cc2)CC1
inactive: [3] 0.137 | [4] 0.115 | [9] 0.0689 | [10] 0.102 | [5] 0.12 | [6] -0.00591 | [11] 0.108 | [12] 0.116

CC(=O)[O][Hg][c]1ccccc1
active: [3] -0.557 | [5] -2.86 | [6] -2.46

C=CCN1CC[C@]23CCCC[C@H]2[C@H]1Cc1ccc(O)cc13
inactive: [9] 0.184 | [10] 0.17 | [11] 0.208 | [12] 0.0718

CC1(C)C(=O)C=C[C@]2(C)C1=C(O)C(=O)[C@@]1(C)[C@H]2CC[C@]2(C)[C@@H](c3ccoc3)C[C@@H]3O[C@]312
inactive: [3] 0.0131 | [4] 0.0981 | [5] -0.0522 | [6] 0.0901
